Assay results as given in the supplement of paper PMC8728848.
Some of the results follow.

Key:
Test in all cases: glycan array binding signal (z-score within array); higher = stronger binding
Conditions in all cases: glycan notation: IUPAC condensed, linker removed
[1] = molecular target: Fuc(a1-2)Gal6S(b1-4)Glc
Procedure, shortened: (§1)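 Negative Z-scores can be read as non-binding. The Z-score is calculated within each array and then averaged across arrays of one protein sequence at different concentrations or buffers and across linkers. Arrays, 3228 in all, were curated from the Consortium for Functional Glycomics database and kept only where the protein sequence was available.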

[2] = molecular target: Fuc(a1-2)Gal6S(b1-4)Glc6S
Procedure, shortened: as §1

[3] = molecular target: Fuc(a1-2)Gal6S(b1-4)GlcNAc
Procedure, shortened: as §1

[4] = molecular target: Fuc(a1-2)[Gal(a1-3)]Gal
Procedure, shortened: as §1

[5] = molecular target: Fuc(a1-2)[Gal(a1-3)]Gal(b1-3)GalNAc
Procedure, shortened: as §1

[6] = molecular target: Fuc(a1-2)[Gal(a1-3)]Gal(b1-3)GlcNAc
Procedure, shortened: as §1

[7] = molecular target: Fuc(a1-2)[Gal(a1-3)]Gal(b1-3)GlcNAc(b1-2)Man(a1-3)[Fuc(a1-2)[Gal(a1-3)]Gal(b1-3)GlcNAc(b1-2)Man(a1-6)]Man(b1-4)GlcNAc(b1-4)GlcNAc
Procedure, shortened: as §1

[8] = molecular target: Fuc(a1-2)[Gal(a1-3)]Gal(b1-3)GlcNAc(b1-2)Man(a1-3)[Fuc(a1-2)[Gal(a1-3)]Gal(b1-3)GlcNAc(b1-2)Man(a1-6)]Man(b1-4)GlcNAc(b1-4)[Fuc(a1-6)]GlcNAc
Procedure, shortened: as §1

[9] = molecular target: Fuc(a1-2)[Gal(a1-3)]Gal(b1-3)GlcNAc(b1-3)GalNAc
Procedure, shortened: as §1

[10] = molecular target: Fuc(a1-2)[Gal(a1-3)]Gal(b1-4)Glc
Procedure, shortened: as §1

[11] = molecular target: Fuc(a1-2)[Gal(a1-3)]Gal(b1-4)GlcNAc
Procedure, shortened: as §1

[12] = molecular target: Fuc(a1-2)[Gal(a1-3)]Gal(b1-4)GlcNAc(b1-2)Man(a1-3)[Fuc(a1-2)[Gal(a1-3)]Gal(b1-4)GlcNAc(b1-2)Man(a1-6)]Man(b1-4)GlcNAc(b1-4)GlcNAc
Procedure, shortened: as §1

[13] = molecular target: Fuc(a1-2)[Gal(a1-3)]Gal(b1-4)GlcNAc(b1-2)Man(a1-3)[Fuc(a1-2)[Gal(a1-3)]Gal(b1-4)GlcNAc(b1-2)Man(a1-6)]Man(b1-4)GlcNAc(b1-4)[Fuc(a1-6)]GlcNAc
Procedure, shortened: as §1

[14] = molecular target: Fuc(a1-2)[Gal(a1-3)]Gal(b1-4)GlcNAc(b1-3)GalNAc
Procedure, shortened: as §1

[15] = molecular target: Fuc(a1-2)[Gal(a1-3)]Gal(b1-4)GlcNAc(b1-6)GalNAc
Procedure, shortened: as §1

[16] = molecular target: Fuc(a1-2)[Gal(a1-3)]Gal(b1-4)[Fuc(a1-3)]Glc
Procedure, shortened: as §1

[17] = molecular target: Fuc(a1-2)[Gal(a1-3)]Gal(b1-4)[Fuc(a1-3)]GlcNAc
Procedure, shortened: as §1

[18] = molecular target: Fuc(a1-2)[Gal(a1-3)]Gal(b1-4)[Fuc(a1-3)]GlcNAc(b1-3)GalNAc
Procedure, shortened: as §1

[19] = molecular target: Fuc(a1-2)[Gal(a1-4)]Gal(b1-4)GlcNAc
Procedure, shortened: as §1

[20] = molecular target: Fuc(a1-2)[GalNAc(a1-3)]Gal
Procedure, shortened: as §1

[21] = molecular target: Fuc(a1-2)[GalNAc(a1-3)]Gal(b1-3)GalNAc(a1-3)[Fuc(a1-2)]Gal(b1-4)GlcNAc
Procedure, shortened: as §1

[22] = molecular target: Fuc(a1-2)[GalNAc(a1-3)]Gal(b1-3)GlcNAc
Procedure, shortened: as §1

[23] = molecular target: Fuc(a1-2)[GalNAc(a1-3)]Gal(b1-3)GlcNAc(b1-2)Man(a1-3)[Fuc(a1-2)[GalNAc(a1-3)]Gal(b1-3)GlcNAc(b1-2)Man(a1-6)]Man(b1-4)GlcNAc(b1-4)GlcNAc
Procedure, shortened: as §1

[24] = molecular target: Fuc(a1-2)[GalNAc(a1-3)]Gal(b1-3)GlcNAc(b1-2)Man(a1-3)[Fuc(a1-2)[GalNAc(a1-3)]Gal(b1-3)GlcNAc(b1-2)Man(a1-6)]Man(b1-4)GlcNAc(b1-4)[Fuc(a1-6)]GlcNAc
Procedure, shortened: as §1

[25] = molecular target: Fuc(a1-2)[GalNAc(a1-3)]Gal(b1-3)GlcNAc(b1-3)GalNAc
Procedure, shortened: as §1

[26] = molecular target: Fuc(a1-2)[GalNAc(a1-3)]Gal(b1-3)GlcNAc(b1-6)GalNAc
Procedure, shortened: as §1

[27] = molecular target: Fuc(a1-2)[GalNAc(a1-3)]Gal(b1-4)Glc
Procedure, shortened: as §1

[28] = molecular target: Fuc(a1-2)[GalNAc(a1-3)]Gal(b1-4)GlcNAc
Procedure, shortened: as §1

[29] = molecular target: Fuc(a1-2)[GalNAc(a1-3)]Gal(b1-4)GlcNAc(b1-2)Man(a1-3)[Fuc(a1-2)[GalNAc(a1-3)]Gal(b1-4)GlcNAc(b1-2)Man(a1-6)]Man(b1-4)GlcNAc(b1-4)GlcNAc
Procedure, shortened: as §1

[30] = molecular target: Fuc(a1-2)[GalNAc(a1-3)]Gal(b1-4)GlcNAc(b1-2)Man(a1-3)[Fuc(a1-2)[GalNAc(a1-3)]Gal(b1-4)GlcNAc(b1-2)Man(a1-6)]Man(b1-4)GlcNAc(b1-4)[Fuc(a1-6)]GlcNAc
Procedure, shortened: as §1

[31] = molecular target: Fuc(a1-2)[GalNAc(a1-3)]Gal(b1-4)GlcNAc(b1-3)Gal(b1-4)GlcNAc
Procedure, shortened: as §1

[32] = molecular target: Fuc(a1-2)[GalNAc(a1-3)]Gal(b1-4)GlcNAc(b1-3)Gal(b1-4)GlcNAc(b1-3)Gal(b1-4)GlcNAc
Procedure, shortened: as §1

[33] = molecular target: Fuc(a1-2)[GalNAc(a1-3)]Gal(b1-4)GlcNAc(b1-3)GalNAc
Procedure, shortened: as §1

[34] = molecular target: Fuc(a1-2)[GalNAc(a1-3)]Gal(b1-4)[Fuc(a1-3)]GlcNAc
Procedure, shortened: as §1

[35] = molecular target: Fuc(a1-2)[GalNAc(a1-3)]Gal(b1-4)[Fuc(a1-3)]GlcNAc(b1-3)GalNAc
Procedure, shortened: as §1

[36] = molecular target: Fuc(a1-2)[GalNAc(a1-4)]Gal(b1-4)GlcNAc
Procedure, shortened: as §1

[37] = molecular target: Fuc(a1-2)[GalNAc(b1-3)]Gal
Procedure, shortened: as §1

[38] = molecular target: Fuc(a1-3)GlcNAc
Procedure, shortened: as §1

[39] = molecular target: Fuc(a1-3)[Gal(b1-4)]Glc6S
Procedure, shortened: as §1

[40] = molecular target: Fuc(a1-3)[Gal(b1-4)]GlcNAc
Procedure, shortened: as §1

[41] = molecular target: Fuc(a1-3)[Gal(b1-4)]GlcNAc(b1-2)Man
Procedure, shortened: as §1

[42] = molecular target: Fuc(a1-3)[Gal(b1-4)]GlcNAc(b1-2)Man(a1-3)[Fuc(a1-3)[Gal(b1-4)]GlcNAc(b1-2)Man(a1-6)]Man(b1-4)GlcNAc(b1-4)GlcNAc
Procedure, shortened: as §1

[43] = molecular target: Fuc(a1-3)[Gal(b1-4)]GlcNAc(b1-2)Man(a1-3)[Fuc(a1-3)[Gal(b1-4)]GlcNAc(b1-2)Man(a1-6)]Man(b1-4)GlcNAc(b1-4)[Fuc(a1-6)]GlcNAc
Procedure, shortened: as §1

[44] = molecular target: Fuc(a1-3)[Gal(b1-4)]GlcNAc(b1-3)Gal(b1-3)[Fuc(a1-4)]GlcNAc
Procedure, shortened: as §1

[45] = molecular target: Fuc(a1-3)[Gal(b1-4)]GlcNAc(b1-3)GalNAc
Procedure, shortened: as §1

B1: CCL1 (Coprinopsis cinerea) (protein)
chain: MDTQAKPPAGRYVIYNRVLSPNGEKLALTYPGYQREALTLTPLHHSANQIWILNNWDATTSSLTPETARNTQVGWGSGNVPIVLPPGNYVWTLASSAGGYIIQDGGKTVYWNAGEAVANTKVSIGGDNGLQARWIFERV
- glycan array binding signal (z-score) [1]: -0.112
- glycan array binding signal (z-score) [2]: -0.033
- glycan array binding signal (z-score) [3]: -0.122
- glycan array binding signal (z-score) [4]: -0.136
- glycan array binding signal (z-score) [5]: -0.147
- glycan array binding signal (z-score) [6]: -0.132
- glycan array binding signal (z-score) [7]: -0.131
- glycan array binding signal (z-score) [8]: -0.129
- glycan array binding signal (z-score) [9]: -0.116
- glycan array binding signal (z-score) [10]: -0.113
- glycan array binding signal (z-score) [11]: -0.169
- glycan array binding signal (z-score) [12]: -0.115
- glycan array binding signal (z-score) [13]: -0.155
- glycan array binding signal (z-score) [14]: -0.154
- glycan array binding signal (z-score) [15]: -0.064
- glycan array binding signal (z-score) [16]: -0.168
- glycan array binding signal (z-score) [17]: -0.138
- glycan array binding signal (z-score) [18]: -0.124
- glycan array binding signal (z-score) [19]: -0.174
- glycan array binding signal (z-score) [20]: -0.152
- glycan array binding signal (z-score) [21]: -0.131
- glycan array binding signal (z-score) [22]: -0.127
- glycan array binding signal (z-score) [23]: -0.11
- glycan array binding signal (z-score) [24]: -0.122
- glycan array binding signal (z-score) [25]: -0.138
- glycan array binding signal (z-score) [26]: -0.118
- glycan array binding signal (z-score) [27]: -0.18
- glycan array binding signal (z-score) [28]: -0.146
- glycan array binding signal (z-score) [29]: -0.078
- glycan array binding signal (z-score) [30]: -0.136
- glycan array binding signal (z-score) [31]: -0.161
- glycan array binding signal (z-score) [32]: -0.073
- glycan array binding signal (z-score) [33]: -0.106
- glycan array binding signal (z-score) [34]: -0.128
- glycan array binding signal (z-score) [35]: 0.174
- glycan array binding signal (z-score) [36]: -0.144
- glycan array binding signal (z-score) [37]: -0.128
- glycan array binding signal (z-score) [38]: -0.156
- glycan array binding signal (z-score) [39]: -0.158
- glycan array binding signal (z-score) [40]: 0.754
- glycan array binding signal (z-score) [41]: 0.141
- glycan array binding signal (z-score) [42]: 0.237
- glycan array binding signal (z-score) [43]: -0.134
- glycan array binding signal (z-score) [44]: 1.7
- glycan array binding signal (z-score) [45]: -0.158
